Assay results taken from PubChem BioAssay AID1030 (National Center for Advancing Translational Sciences (NCATS), 2008).
Hit rate of the full screen: of about 220,000 compounds, about 16,000 (7.3%) were called active. This list was built around the results that the source calls inconclusive (neither active nor inactive); the mix of calls is not that of the screen. Calls come from the whole dose curve; as a rule, active = well fitted inhibition curve with a large enough effect (not every such curve was filed as active); inconclusive = small, poorly fitted or top-dose-only effect, or another doubt; inactive = no such curve, though single readings can be large or run the other way. No potency is given beside an inconclusive call; the fits are too rough.
Potency is the fitted concentration of half-maximal effect; tags give direction and shape of the fitted curve.
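Throughout, for activity, negative = inhibition: plate controls were no enzyme wells and a reference inhibitor.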

These compounds were tested against Aldehyde dehydrogenase 1A1 (Homo sapiens) (UniProt P00352) (assay: qHTS Assay for Inhibitors of Aldehyde Dehydrogenase 1 (ALDH1A1)). Conditions: Purified ALDH1A1, NADH fluorescence, propionaldehyde substrate; series mostly up to 75.3 µM.
Chain of UniProt P00352 (P00352 whole entry, looked up): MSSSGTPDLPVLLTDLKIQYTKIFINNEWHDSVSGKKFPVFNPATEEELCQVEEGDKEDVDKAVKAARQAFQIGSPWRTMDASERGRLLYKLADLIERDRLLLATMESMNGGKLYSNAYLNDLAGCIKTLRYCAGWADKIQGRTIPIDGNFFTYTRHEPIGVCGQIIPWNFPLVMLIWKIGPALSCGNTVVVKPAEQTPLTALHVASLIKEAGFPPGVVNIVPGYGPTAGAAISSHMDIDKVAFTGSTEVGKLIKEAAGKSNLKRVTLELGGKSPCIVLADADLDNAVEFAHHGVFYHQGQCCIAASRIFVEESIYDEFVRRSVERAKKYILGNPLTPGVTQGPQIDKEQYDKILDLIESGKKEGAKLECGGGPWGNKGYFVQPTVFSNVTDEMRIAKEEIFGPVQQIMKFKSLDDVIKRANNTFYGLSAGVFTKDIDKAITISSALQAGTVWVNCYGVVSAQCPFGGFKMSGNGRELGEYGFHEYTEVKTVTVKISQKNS
With COc1cccc(S(=O)(=O)Nc2ccc(C(=O)N3CCCCCC3)cc2)c1 the Potency was active: 22.4 µM. For CCCn1c(NCc2ccc3c(c2)OCO3)nc2ccccc21, the Potency was “inactive”. With O=C1N=c2ccccc2=C1c1sc(Nc2ccc(O)cc2)nc1O the Potency was inconclusive [inhibitor, full curve]. In the case of O=C(Nc1ccc2c(c1)ncn2-c1ccccc1)c1ccco1, the Potency is reported as inconclusive [inhibitor, single point]. COc1ccc(NC(=S)Nc2ccc3nccnc3c2)cc1 was tested, and the Potency was inconclusive [inhibitor, single point]. For COCc1cc(C)nc(OCC(=O)N/N=C/c2ccc(O)cc2O)c1C#N, the Potency was “inactive”. For Cc1ccc(S(=O)(=O)Nc2ncc(C(F)(F)F)cc2Cl)cc1, the Potency was “inactive”. With C/C(Cl)=C\Cn1c(Nc2cccc(C)c2)nc2c1c(=O)n(C)c(=O)n2C the Potency was active: 20 µM. In the case of Cc1ccc(N2C(N)=C(C#N)C(c3cc(CN4CCOCC4)cs3)C3=C2CC(C)(C)CC3=O)cc1 (stereo unspecified), the Potency is reported as inconclusive [inhibitor, single point]. In the case of CCOC(=O)N1CCN(S(=O)(=O)c2ccc(OCC)c3ccccc23)CC1, the Potency is reported as inconclusive [inhibitor, single point]. COc1cc(/C=C/C(=O)N2CCC=CC2=O)cc(OC)c1OC was tested, and the Potency was active: 10 µM. For COc1cccc(C(=O)CN(C(=O)c2ccc(Cl)cc2Cl)N2C(=O)c3ccccc3C2=O)c1, the Potency was active: 15.8 µM. With COc1ccc(-c2cc(=O)n(-c3nc4ccccc4[nH]3)[nH]2)cc1 the Potency was “inactive”. In the case of CC(=O)Nc1ccc(Cc2nc3ccccc3[nH]2)cc1, the Potency is reported as “inactive”. CN(C)c1ncnc2ccc(-c3ccc4c(c3)OCO4)cc12 was tested, and the Potency was inconclusive [inhibitor, partial curve]. In the case of Cc1nc(SC2CCOC2=O)c2c(C)c(C)sc2n1 (stereo unspecified), the Potency is reported as active: 22.4 µM. COc1ccc(-c2cnnc(N/N=C/c3ccc(-c4ccc([N+](=O)[O-])cc4)o3)n2)cc1 was tested, and the Potency was “inactive”. N#CCc1c(C#N)c(N)nc(N2CCN(c3ccc(F)cc3)CC2)c1C#N was tested, and the Potency was inconclusive [inhibitor, full curve]. CC(C)(C)c1ccc(CSc2nnc(-c3ccccc3NC(=O)c3ccccc3)o2)cc1 was tested, and the Potency was inconclusive [inhibitor, partial curve]. With O=[N+]([O-])c1ccc(Cl)cc1Cl the Potency was “inactive”. For Cn1ccc(NC(=O)Nc2cccc([N+](=O)[O-])c2)n1, the Potency was inconclusive [inhibitor, single point]. O=C1Nc2cccnc2Sc2ccccc21 was tested, and the Potency was inconclusive [inhibitor, partial curve]. For CCN(CC)C(=S)SCC(=O)Nc1ccc(F)cc1, the Potency was inconclusive [inhibitor, single point]. In the case of CCC1(CC)Cc2ccccc2C(N)=C1C#N, the Potency is reported as inconclusive [inhibitor, single point]. With COc1cccc2[nH]c3c(N4CCCCC4)ncnc3c12 the Potency was inconclusive [inhibitor, single point]. For CO[C@@H]1COC(=O)C/C=C\[C@H](C)COC(=O)[C@H](C)NC(=O)C/C=C\[C@H]1C, the activity, negative = inhibition was inactive: 10.9% [at 13.5 µM]. With CCOC(=O)Nc1nnc(-c2ccccc2OC)s1 the Potency was “inactive”. In the case of O=C(NN=C1CCCC1)C1COc2ccccc2O1 (stereo unspecified), the Potency is reported as “inactive”. In the case of O=C(N/C(=C/c1ccccc1)C(=O)N1CCOCC1)c1ccc([N+](=O)[O-])cc1, the Potency is reported as “inactive”. O=C(O)c1ccc(N2C(=O)C3ON(c4ccccc4)C(c4ccccc4F)C3C2=O)cc1 (stereo unspecified) was tested, and the Potency was inconclusive [inhibitor, full curve, poor fit]. For Cc1cc(C)c(-c2noc(C(=O)OC(C)(C)C)c2C(=O)OC(C)(C)C)c(C)c1, the Potency was “inactive”. Cc1cccc(NC(=O)/C=C/c2cccs2)n1 was tested, and the Potency was inconclusive [inhibitor, single point]. With COc1ccc(NC(=O)c2cc(Br)c(Br)s2)cn1 the Potency was “inactive”. In the case of O=C(CSc1nn(-c2ccc(Cl)cc2)c(=S)s1)NCC1CCCO1 (stereo unspecified), the Potency is reported as inconclusive [inhibitor, single point]. For O=c1[nH]c2c(s1)C(c1ccco1)C1C3CCC(C3)C1S2 (stereo unspecified), the Potency was active: 12.6 µM. For O=[N+]([O-])c1cccc2ccc(/C=C/c3ccc(F)cc3)nc12, the Potency was inconclusive [inhibitor, partial curve]. Cc1ccc(NCc2nnc(SCC(=O)c3ccccc3)n2Cc2ccco2)c(C)c1 was tested, and the Potency was active: 10 µM. Cc1ccc(CCNC(=O)C2CC(c3ccccc3[N+](=O)[O-])=NO2)cc1 (stereo unspecified) was tested, and the Potency was inconclusive [inhibitor, partial curve]. In the case of O=c1c(CCc2ccccc2)nc2cncnc2n1Cc1ccccc1, the Potency is reported as active: 25.1 µM. With O=C(NC1CC1)C1CCCN1S(=O)(=O)c1ccc2ccccc2c1 (stereo unspecified) the Potency was “inactive”. In the case of CCOC(=O)N1CCN(C(=O)CSc2ccc(-c3ccccc3)nn2)CC1, the Potency is reported as inconclusive [inhibitor, single point]. For COc1ccc(Br)c2c1C(=O)CC2, the Potency was “inactive”. In the case of COc1ccc(C(=O)Nc2ccccn2)cc1, the Potency is reported as “inactive”. With O=C(Nc1cccnc1)c1cc(-c2ccc3c(c2)OCO3)on1 the Potency was inconclusive [inhibitor, single point]. For CC1=NN(C(=O)c2ccc(Cn3cc([N+](=O)[O-])cn3)cc2)C(O)(C(F)(F)F)C1 (stereo unspecified), the Potency was “inactive”. COCCCNC(=S)N(Cc1cccnc1)Cc1ccc(OC)c(OC)c1 was tested, and the Potency was “inactive”. In the case of Cc1nc(Cl)c(C(=O)NCc2ccccc2)c(C)c1Cl, the Potency is reported as inconclusive [inhibitor, single point]. CC1CCN(C(=O)CSc2nnc(Cc3cc(=O)[nH]c(=O)[nH]3)n2-c2ccc(Cl)cc2)CC1 was tested, and the Potency was inconclusive [inhibitor, single point]. CCCC(=O)NC(c1ccco1)c1cc(Cl)c2cccnc2c1O (stereo unspecified) was tested, and the Potency was “inactive”. With O=C(CCc1nnc(Cc2ccc(-c3ccccc3)cc2)o1)NCCc1cccnc1 the Potency was inconclusive [inhibitor, single point]. With CCOc1ccc2c(c1)n(CO)c(=S)n2CO the Potency was inconclusive [inhibitor, single point].
